Test results published in ChEMBL document CHEMBL1201862, “PubChem BioAssay data set” (2004).
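Protocol summary: plate cells (96-well), add compound at 5 concentrations, incubate 48 h, interpolate endpoints linearly. The concentration for 50% growth inhibition is given as GI50.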 The source made the active and inactive calls. Rule as the data show it: active = GI50 up to about 1.1 µM and inactive = higher.

System: NCI-H322M
Test: NCI anticancer screen, dose series, 48 h

Compound | GI50
COc1ccc(NC(C)=O)cc1N1C(=O)/C(=C\c2cccc(Oc3ccccc3)c2)SC1c1ccccc1 (stereo not given) | inactive: 99.8 µM
O1C2C1C1OC1C1OC1C1OC21 (stereo not given) | inactive: > 100 µM
CC1=Nc2c(ccc3c2C(=O)c2ccccc2C3=O)NC(c2cccc3c2CCC3)C1 (stereo not given) | inactive: 18.2 µM
C=CCC1C(=O)C(C(=O)OC)N2CCc3c([nH]c4ccccc34)C12 (stereo not given) | inactive: > 100 µM
COC(=O)C1CCCN1C(=O)OC(C)(C)C (stereo not given) | inactive: > 100 µM
C[N+](C)(CCCn1ccnc1[N+](=O)[O-])CCCn1ccnc1[N+](=O)[O-] | inactive: > 100 µM
CC(=O)n1cc(OP(=O)(Oc2ccccc2)Oc2ccccc2)c2ccccc21 | inactive: 76.9 µM
CC(CC(=O)N1C2CC3CCC2(CS1(=O)=O)C3(C)C)[Si](C)(C)C (stereo not given) | inactive: > 100 µM
CO/C(=N\N=C\c1cccc(C(F)(F)F)c1)c1ccncc1 | inactive: 36.9 µM
C#CCOC(=O)[C@@H](C)c1ccc2cc(OC)ccc2c1 | inactive: > 100 µM
CC1(C)CCC[C@@]2(C)C1CC[C@H]1CC(O)C3(C)CCC12C3 (stereo not given in full) | inactive: 17.5 µM
CNC(=S)N/N=C(/C)CCC/C(C)=N/NC(=S)NC | inactive: > 100 µM
COC(=O)/C=C\C(C#N)(C#N)/N=C/c1sccc1C | inactive: 17.3 µM
O=C(Cn1nnc(-c2ccccc2)n1)N/N=C/c1cn(Cc2ccc(Cl)cc2Cl)c2ccccc12 | inactive: > 100 µM
Cc1ccc2c(ccc3c[n+]4ccccc4c(C)c32)c1.[O-][Cl+3]([O-])([O-])[O-] | inactive: 5.19 µM
CC(=O)NN1C(=O)C(Cc2ccccc2)c2ccccc21 (stereo not given) | inactive: > 100 µM
c1cncc(CSc2ncnc3[nH]cnc23)c1 | inactive: > 100 µM
C=C(C)[C@H]1C=C[C@@H](OC(=O)c2cccnc2)[C@@]23CO[C@@](C)([C@H](OC(=O)c4cccnc4)[C@@]4(OC(C)=O)C[C@H](C)[C@H](OCCC)[C@@H]4[C@H]2OC(C)=O)[C@H]13 | inactive: > 15 µM
O=C1[C@H]2ON(c3ccccc3)C(c3ccco3)[C@H]2C(=O)N1c1ccc(Cc2ccc(N3C(=O)[C@@H]4ON(c5ccccc5)C(c5ccco5)[C@@H]4C3=O)cc2)cc1 (stereo not given in full) | inactive: > 100 µM
NC(=O)C(=Cc1ccc(CP(=O)(O)O)cc1)C(N)=O | inactive: > 100 µM
CSc1nc(Nc2cccc(C(F)(F)F)c2)c2c(N)nn(C)c2n1 | inactive: > 100 µM
COc1ccc2cc(NC(=O)N/N=C\c3ccc(Cl)cc3)ccc2c1 | inactive: > 100 µM
CC1C2CC(CC2=O)C1(C)C (stereo not given) | inactive: > 100 µM
COc1c(-c2nc3ccc(N4CCN(C)CC4)nc3[nH]2)cc(OC)c2c1nc(CO)n2C | inactive: > 100 µM

Compound | GI50
COC(=O)/C(C#N)=C1\CCC(Nc2cccc(C(F)(F)F)c2)N1C (stereo not given) | inactive: > 100 µM
N#CC1=C(N2CCCC2)NC(=O)CC1=O | inactive: > 100 µM
CCOC(=O)NN(C(=O)OCC)c1c(C)cc(C)cc1C | inactive: > 100 µM
O=C(NCCN1C(=O)CN=C(c2ccc(Cl)cc2)c2cc(Cl)ccc21)OCc1ccccc1 | inactive: 17.3 µM
COC(=O)N1C[C@@]2(C=CC3(CC2)OCCO3)c2ccccc21 | inactive: > 100 µM
Nc1nc(N)c2cc(CNc3ccc(C(=O)NC(CC(=O)O)C(=O)O)c(Cl)c3)ccc2n1 (stereo not given) | active: 0.0805 µM
CC(C)(C)C1=CC(=N/N=c2\scc(-c3ccccc3)n2Cc2ccccc2)C=C(C(C)(C)C)C1=O | inactive: > 100 µM
CSc1nc(NC2OC(CO)C(O)C(O)C2O)c(N)c(=O)n1C (stereo not given) | inactive: > 100 µM
CC(C)(C)c1cc(OCc2nnc(S)n2N)c(Cl)cc1OCc1nnc(S)n1N | inactive: 45 µM
CCOC(=O)C(=O)Nc1c(C)cccc1CC | inactive: > 100 µM
Nc1ncnc2c1nc(-c1ccccc1)n2C1OC(CO)C(O)C1O (stereo not given) | inactive: > 100 µM
O=C(O)CCN1C(=S)CSC1=S | inactive: > 100 µM
Clc1ccc(COC(Cn2ccnc2)c2ccc(Cl)cc2Cl)cc1 (stereo not given) [ECONAZOLE NITRATE] | inactive: 12.9 µM
O=C1C=CC(=O)c2c(NCC3CC3)ccc(NCC3CC3)c21 | inactive: > 100 µM
COC(=O)[C@]1(C)C(OC)=CC(=O)C2C1[C@H]1CCC[C@@H]21 (stereo not given in full) | inactive: > 100 µM
O=C(O)CCC(c1ccccc1)(c1ccccc1)c1ccccc1 | inactive: 37 µM
c1csc(-c2cc(-c3cccs3)c(-c3cccs3)s2)c1 | inactive: > 100 µM
Cc1cc2c(C=O)n[nH]c2c(C#N)c1C | inactive: > 100 µM
CCN(CC)Cc1cc(Nc2ccnc3ccc4nn(C)nc4c23)ccc1O | inactive: 13.7 µM
O=C(NCCCCCCCCCCCCNC(=O)c1cnc2ccccc2n1)c1cnc2ccccc2n1 | inactive: 40.9 µM
COc1ccc(C2c3cc4c(cc3C(O)C3CCC(=O)N23)OCO4)cc1 (stereo not given) | inactive: > 100 µM
O=C(O)C(Cc1c[nH]c2ccccc12)C(=O)NO (stereo not given) | inactive: > 100 µM
C=C1C(C)C2C(Cc3ccccc3)NC(=O)C23C(OC(C)=O)C=CC(C)(O)C(=O)C(C)C/C=C/C3C1O (stereo not given) | inactive: 58.3 µM
O=C1c2c(O)cccc2C(C2OC(CO)C(O)C(O)C2O)c2cc(CO)cc(O)c21 (stereo not given) | inactive: > 100 µM

Compound | GI50
c1ccc2c(c1)c1c(c3ccccc32)CN2CCCC2C1 (stereo not given) | inactive: 4.13 µM
Nc1ccc(C2NC(=O)Cc3c2ccc2ccccc32)cc1 (stereo not given) | inactive: > 100 µM
N=C(N)N/N=C/c1c(Cl)nc2n1CCS2 | inactive: 24.4 µM
C1=CC2C(C3CN(c4ccccc4)N=C13)C1C3C4C=CC21C=CC43 (stereo not given) | inactive: > 100 µM
Oc1cc(Cl)cc2cc(Br)cnc12 | inactive: 24.2 µM
COc1ccc(/C=C/C(=O)c2sc(NC(=S)NC(=O)c3ccc(Cl)cc3)nc2C)cc1OC | inactive: 59.3 µM
Cc1ccc2c(c1)C(=O)C1(C2)Cc2cccc(C)c2C1=O (stereo not given) | inactive: > 100 µM
O=c1ccc2cc3ccc4cccc5ccc(c2o1)c3c45 | inactive: > 100 µM
c1ccc(C2N3CCCCC3[C@@H]3c4[nH]c5ccccc5c4CCN23)nc1 (stereo not given in full) | inactive: 37.2 µM
COc1ccc2nc3n(c2c1)C(=O)c1ccccc1-3 | inactive: > 100 µM
CC(C)=CC(C(O)c1ccccc1)S(=O)(=O)c1nccn1C (stereo not given) | inactive: > 100 µM
CCc1nnc(S)n1/N=C/c1ccc(-c2ccc([N+](=O)[O-])cc2)o1 | inactive: > 100 µM
Cn1c(=O)c2nc(N3CCCCC3)cnc2n(C)c1=O | inactive: > 100 µM
O=[N+]([O-])c1ccc2c(c1)nc(Cc1ccc(Cl)cc1)n2C[C@@H]1CCCN2CCCCC12 (stereo not given in full) | inactive: 9.86 µM
Cc1ccc(S(=O)(=O)N/N=C2/C3CCC(C3)C2c2ccccc2)cc1 (stereo not given) | inactive: > 100 µM
OCCOCn1cc(Cn2ncc3c(SCc4ccccc4)ncnc32)nn1 | inactive: 57.3 µM
O=C(O)CC(CC(=O)O)C(=O)O [TRICARBALLYLIC ACID] | inactive: > 100 µM
Cc1ccc2c(O)cc(-c3cccc(Cl)c3)nc2n1 | active: 0.0352 µM
CCOC1C(Br)Cn2c(=O)c3cc4ccccc4cc3c(=O)n2C1C (stereo not given) | inactive: > 100 µM
O=C(/C=C/c1ccc(O)c(O)c1)OCCOC(=O)/C=C/c1ccc(O)c(O)c1 | inactive: 27.5 µM
CCc1cc2c(oc3c4ccccc4ccc23)c(=O)[nH]1 | inactive: > 10 µM
COc1cccc2cc(C(C)=O)c(=O)oc12 | inactive: > 100 µM
CC(C#N)(c1ccccc1)N(CCc1ccccc1)C(=O)Oc1ccccc1 (stereo not given) | inactive: > 100 µM
O=C(CCCN1CCC(O)(c2ccc(Cl)cc2)CC1)c1ccc(F)cc1 [HALOPERIDOL] | inactive: 25.1 µM

Compound | GI50
CCCc1cn2c(/C=N/NC(=N)N)c(-c3ccc(Cl)c([N+](=O)[O-])c3)nc2s1 | inactive: 1.76 µM
CC1ON2CCCC2[C@H]1C(=O)N1C2CC3CCC2(CS1(=O)=O)C3(C)C (stereo not given in full) | inactive: > 100 µM
CCN(CC)C(=O)C(C)n1cc(C)c(=O)[nH]c1=O (stereo not given) | inactive: > 100 µM
O=C1[C@@H]2[C@@H](CN3CN(c4ccccc4)N=C(c4ccccc4)[C@@]23c2ccccc2)C(=O)N1c1ccccc1 | inactive: 17.1 µM
CCc1cccc(C)c1NC(=O)CCc1nnc(S)[nH]1 | inactive: > 100 µM
CC(C)(C)OC(=O)c1cnc(Cl)cn1 | inactive: 29.9 µM
CCOc1ccc(C(=O)/C=C2/Nc3ccccc3N/C2=C/C(=O)c2ccc(OCC)cc2)cc1 | inactive: > 100 µM
Cc1ccc(OC(=O)N2C/C(=C\c3ccccc3)C(=O)/C(=C/c3ccccc3)C2)cc1 | inactive: > 100 µM
Nc1nc(NCCCO)cc(=O)[nH]1 | inactive: > 100 µM
O=C(CCc1n[nH]c(=S)o1)Nc1cc(Cl)ccc1Cl | inactive: > 100 µM
CN1CC[C@@]2(c3cccc(O)c3)CC(=O)/C(=C/c3ccccc3)[C@H]1C2.[O-][Cl+3]([O-])([O-])O | inactive: 14.5 µM
CCN(CC)c1c(-c2c(OC(C)C)c(=O)c2=O)c(=O)n2ccsc2c1OC(C)=O | inactive: > 100 µM
CCCC(=O)OCC(O)CO (stereo not given) | inactive: > 5000 µM
COc1cc(C2=NN(C)C(c3ccc([N+](=O)[O-])o3)C2)cc(OC)c1OC (stereo not given) | inactive: > 100 µM
CC(=O)n1ccc2c(Cl)ncnc21 | inactive: > 100 µM
CCN(CC)CCCCC1CCN(CC(=O)N2c3cc(Cl)ccc3NC(=O)CC2C)CC1 (stereo not given) | inactive: > 100 µM
O=C1C(Cl)C(c2cc3cc(Br)ccc3nc2Cl)N1c1ccc(Cl)cc1 (stereo not given) | inactive: 5.05 µM
N=C(N)NS(=O)(=O)c1ccc(Nc2c3ccccc3nc3c(C(=O)NNCCO)cccc23)cc1 | active: 0.34 µM
O=c1[nH]cnc(NC2C=C(CO)C(O)C2O)c1[N+](=O)[O-] (stereo not given) | inactive: > 100 µM
C=C1C2CC[C@@](C)(O)C2[C@H]2OC(=O)C(=C)[C@@H]2C[C@H]1O (stereo not given in full) | inactive: 51.2 µM
CC1(C)OCC(C2OC(OC(=O)c3ccc(C(F)(F)F)cc3)C3OC(C)(C)OC23)O1 (stereo not given) | inactive: > 77.4 µM
O=C(O)Cc1ccc(Nc2nc3ccccc3nc2C(=O)O)cc1 | inactive: > 100 µM
Cc1c(C(=O)C/C(=N/NC(=O)C[n+]2ccccc2)C(=O)Nc2ccccc2)[n+]([O-])c2ccccc2[n+]1[O-] | inactive: > 100 µM
